Test results from US20220389394A1 (Gilead, published 2022).
Like-named read-outs stand apart in the source and are kept apart here.

T1: his-tagged recombinant human Flt3 receptor (Sino Biologicals) (human, UniProt P36888 27-541, limits assumed)
T1 construct: Bought protein; also called human recombinant FLT3; not shown: His tag
T1 sequence (looked up): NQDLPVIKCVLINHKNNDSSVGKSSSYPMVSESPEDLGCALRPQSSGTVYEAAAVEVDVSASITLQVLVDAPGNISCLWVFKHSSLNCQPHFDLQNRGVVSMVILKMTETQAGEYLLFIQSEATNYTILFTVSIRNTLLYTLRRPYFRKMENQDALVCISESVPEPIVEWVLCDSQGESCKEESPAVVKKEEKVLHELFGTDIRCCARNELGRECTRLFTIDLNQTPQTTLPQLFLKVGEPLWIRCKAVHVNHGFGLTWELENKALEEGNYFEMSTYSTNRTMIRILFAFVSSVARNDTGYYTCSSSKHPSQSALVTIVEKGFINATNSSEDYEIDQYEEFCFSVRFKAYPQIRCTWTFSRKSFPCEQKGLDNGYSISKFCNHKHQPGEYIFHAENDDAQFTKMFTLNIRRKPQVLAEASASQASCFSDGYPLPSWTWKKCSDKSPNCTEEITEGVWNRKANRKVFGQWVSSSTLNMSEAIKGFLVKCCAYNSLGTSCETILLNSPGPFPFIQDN

T2: human FLT3 on the AML5 cell line (human, UniProt P36888 27-993)
T2 sequence (looked up): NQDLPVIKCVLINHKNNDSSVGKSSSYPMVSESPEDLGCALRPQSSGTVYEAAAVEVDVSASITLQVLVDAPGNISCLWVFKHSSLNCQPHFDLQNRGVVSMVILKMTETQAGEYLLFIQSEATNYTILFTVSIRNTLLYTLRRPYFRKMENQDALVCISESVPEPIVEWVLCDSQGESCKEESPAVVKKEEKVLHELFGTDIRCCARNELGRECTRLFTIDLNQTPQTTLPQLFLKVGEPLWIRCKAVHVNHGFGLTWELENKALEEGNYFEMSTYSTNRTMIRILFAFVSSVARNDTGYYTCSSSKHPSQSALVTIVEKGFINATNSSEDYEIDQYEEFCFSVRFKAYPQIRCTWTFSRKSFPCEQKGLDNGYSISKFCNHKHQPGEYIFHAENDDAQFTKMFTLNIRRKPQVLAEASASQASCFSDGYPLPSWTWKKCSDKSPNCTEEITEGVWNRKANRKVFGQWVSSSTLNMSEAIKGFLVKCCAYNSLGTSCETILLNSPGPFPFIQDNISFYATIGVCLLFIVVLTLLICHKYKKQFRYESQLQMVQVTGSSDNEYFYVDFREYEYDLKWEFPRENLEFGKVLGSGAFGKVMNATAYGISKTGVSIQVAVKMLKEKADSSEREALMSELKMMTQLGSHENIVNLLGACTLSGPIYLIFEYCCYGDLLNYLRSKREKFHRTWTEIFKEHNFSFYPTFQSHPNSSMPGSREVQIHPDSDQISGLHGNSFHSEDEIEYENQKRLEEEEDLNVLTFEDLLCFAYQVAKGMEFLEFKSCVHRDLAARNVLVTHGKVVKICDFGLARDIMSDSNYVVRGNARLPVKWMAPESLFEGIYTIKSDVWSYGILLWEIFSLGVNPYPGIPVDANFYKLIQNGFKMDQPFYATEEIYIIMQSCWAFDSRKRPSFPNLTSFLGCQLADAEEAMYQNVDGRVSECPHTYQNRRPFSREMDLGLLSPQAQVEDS


Columns and labels:
[1] = target: T1, his-tagged recombinant human Flt3 …; experiment: ELISA; His-tagged recombinant human Flt3 on nickel plate, serially diluted Flt3L-Fc, anti-human (H+L)-HRP, 4PL fit
Source text: Graph is a result of one experiment.
(§1) Signal was developed using TMB substrate then quenched prior to reading absorbance at 450 nm on a SpectraMax plate reader.

[2] = target: T2, human FLT3 on the AML5 cell line; experiment: cell-based or functional assay
recombinant human FcRn [3] = target: T3, recombinant human FcRn (human, UniProt P55899 partial chain; P61769 partial chain, limits assumed); experiment: ELISA; recombinant human FcRn coated, serially diluted test article, anti-human (H+L)-HRP, 4PL fit; estimate, no saturating signal
T3 construct: a beta-2-microglobulin chain is not mentioned; also called human recombinant FcRn
Protocol: (§2) Graph is a result of one experiment. Experiment was performed in duplicate. Error bars represent standard deviation of the mean values.
(§3) Signal was developed using TMB substrate then quenched prior to reading absorbance at 450-650 nm on a SpectraMax plate reader.

[4] = target: T4, recombinant human C1q protein (Fitzgerald) (human, UniProt P02745; P02746; P02747, limits assumed); experiment: ELISA, test article immobilized, C1q added; text: devoid of C1q binding ability
T4 construct: also called human recombinant complement protein, C1q

[5] = target: T2, human FLT3 on the AML5 cell line; experiment: cell-based or functional assay; remark: listed apart in the source
[6] = target: T1, his-tagged recombinant human Flt3 …; experiment: ELISA; His-tagged recombinant human Flt3 on nickel plate, serially diluted Flt3L-Fc, anti-human (H+L)-HRP, 4PL fit; remark: listed apart in the source
Protocol: as §2, §1

recombinant human FcRn [7] = target: T3, recombinant human FcRn; experiment: ELISA; recombinant human FcRn coated, serially diluted test article, anti-human (H+L)-HRP, 4PL fit
Protocol: as §2, §3

T4 sequence (P02745 23-245 limits assumed, chain 1 of 3): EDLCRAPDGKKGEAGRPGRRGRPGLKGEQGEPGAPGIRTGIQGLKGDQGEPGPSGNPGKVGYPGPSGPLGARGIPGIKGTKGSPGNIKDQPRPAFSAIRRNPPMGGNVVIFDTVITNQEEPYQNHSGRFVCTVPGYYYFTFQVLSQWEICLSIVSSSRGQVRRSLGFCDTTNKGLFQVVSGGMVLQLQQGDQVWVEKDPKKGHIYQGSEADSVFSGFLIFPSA
T4 sequence (P02746 28-253 limits assumed, chain 2 of 3, further chain): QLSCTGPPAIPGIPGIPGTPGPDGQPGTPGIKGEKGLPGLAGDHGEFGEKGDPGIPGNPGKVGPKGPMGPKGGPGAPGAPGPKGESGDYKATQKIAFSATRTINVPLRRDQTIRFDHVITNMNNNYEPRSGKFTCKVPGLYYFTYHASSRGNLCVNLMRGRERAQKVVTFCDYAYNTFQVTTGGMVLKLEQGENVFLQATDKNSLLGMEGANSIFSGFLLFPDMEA
T4 sequence (P02747 29-245 limits assumed, chain 3 of 3, further chain): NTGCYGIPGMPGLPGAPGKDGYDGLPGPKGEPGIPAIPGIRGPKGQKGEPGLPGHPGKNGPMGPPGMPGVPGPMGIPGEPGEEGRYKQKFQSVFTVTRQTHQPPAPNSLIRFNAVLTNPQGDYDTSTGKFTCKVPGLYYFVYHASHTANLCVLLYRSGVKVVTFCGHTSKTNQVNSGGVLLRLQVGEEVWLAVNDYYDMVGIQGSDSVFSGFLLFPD

EC50 [1] [nM]	EC50 (nM), AML5 proliferation [2] [nM]	EC50 (recombinant human FcRn [3]) [nM]	EC50 (nM), AML5 proliferation [5] [nM]	EC50 [6] [nM]	EC50 (recombinant human FcRn [7]) [nM]	Binder	binding result [4]
0.18	0.088					human FLT3-ligand human IgG4 (S228P/L235E) fusion protein (SEQ ID NO:3) (Fc fusion, also called FLT3L ECD - hG4 S228P/L235E) TQDCSFQHSPISSDFAVKIRELSDYLLQDYPVTVASNLQDEELCGGLWRLVLAQRWMERLKTVAGSKMQGLLERVNTEIHFVTKCAFQPPPSCLRFVQTNISRLLQETSEQLVALKPWITRQNFSRCLELQCQPDSSTLPPPWSPRPLEATAPTAPQ[human IgG4 Fc with changes not printed]	
0.18	0.073	~68.8				human FLT3-ligand human IgG4 (S228P/F234A/L235A) fusion protein (SEQ ID NO:4) (Fc fusion, also called FLT3L ECD - hG4 S228P/F234A/L235A) TQDCSFQHSPISSDFAVKIRELSDYLLQDYPVTVASNLQDEELCGGLWRLVLAQRWMERLKTVAGSKMQGLLERVNTEIHFVTKCAFQPPPSCLRFVQTNISRLLQETSEQLVALKPWITRQNFSRCLELQCQPDSSTLPPPWSPRPLEATAPTAPQ[human IgG4 Fc with S228P F234A L235A (EU numbers) not printed]	no binding (tested: 94 nM (highest of the titration))
0.2	0.075	~140				human FLT3-ligand (Δ10 amino acid) human IgG4 (S228P/F234A/L235A) fusion protein (SEQ ID NO:8) (Fc fusion) TQDCSFQHSPISSDFAVKIRELSDYLLQDYPVTVASNLQDEELCGGLWRLVLAQRWMERLKTVAGSKMQGLLERVNTEIHFVTKCAFQPPPSCLRFVQTNISRLLQETSEQLVALKPWITRQNFSRCLELQCQPDSSTLPPPWSPRP[human IgG4 Fc with S228P F234A L235A (EU numbers) not printed]	no binding (tested: 94 nM (highest of the titration))
0.22	0.078	~136	0.048	0.7	365	human FLT3-ligand (Δ5 amino acid) human IgG4 (S228P/F234A/L235A) fusion protein (SEQ ID NO:6) (Fc fusion, also called FLT3L (Δ C-term 5aa (PTAPQ)) - hG4 S228P/F234A/L235A) TQDCSFQHSPISSDFAVKIRELSDYLLQDYPVTVASNLQDEELCGGLWRLVLAQRWMERLKTVAGSKMQGLLERVNTEIHFVTKCAFQPPPSCLRFVQTNISRLLQETSEQLVALKPWITRQNFSRCLELQCQPDSSTLPPPWSPRPLEATA[human IgG4 Fc with S228P F234A L235A (EU numbers) not printed]	no binding (tested: 94 nM (highest of the titration))
